Assay results reported in US20240287089A1, “Preparation and Uses of 7-Azaindenoisoquinolines” (Purdue Research Foundation, priority 0001, published 2024).
Where two headings read alike, the source gives them in different places.

Key:
[1] = mouse, 1 μM
[2] = male, mouse, microsomes, 1 μM
[3] = in vivo, iv, 20 mg/kg
[4] = Pharmacokinetics IV and PO in male CD1 mice
[5] = male, CD1, mouse, plasma, iv, 1 mg/kg

With `CCNCCCn1c2c(c3cc(OC)c(OC)cc3c1=O)C(=O)c1cc3c(nc1-2)OCO3` [G104, 6-(3-(Ethylamino)propyl)-2,3-dimethoxy-5H-[1,3]dioxolo[4″,5″:5′,6′]pyrido [3′,2′:4,5]cyclopenta[1,2-c]isoquinoline-5,12(6H)-dione] the “% Stability at 6 hrs” value [1] was 86.57%, the “Scaled-up CLint” value [2] was 38.38 mL/min/kg and the T1/2 [2] was 2.6332 h. The “in vitro CLint” value [2] was 8.77 μL/min/mg protein, the AUCInf ([3]; male, CD1, mouse) was 2316 ng·h/mL and the AUClast ([3]; male, CD1, mouse) was 2160 ng·h/mL. It also gave a C0 ([3]; male, CD1, mouse) of 1164 ng/mL, a Cl_obs ([3]; male, CD1, mouse) of 144 mL/min/kg and a T1/2 ([3]; male, CD1, mouse) of 7.06 h. For the same molecule, the “Brain/Plasma Conc Ratio” value ([3]; male, CD1, mouse, 0.25 h) was 1.88, the “Brain/Plasma Conc Ratio” value ([3]; male, CD1, mouse, 0.5 h) was 2.40 and the “Brain/Plasma Conc Ratio” value ([3]; male, CD1, mouse, 1 h) was 3.81. The “Brain/Plasma Conc Ratio” value ([3]; male, CD1, mouse, 2 h) was 5.65, the “Brain/Plasma Conc Ratio” value ([3]; male, CD1, mouse, 4 h) was 3.58 and the “Brain/Plasma Conc Ratio” value ([3]; male, CD1, mouse, 8 h) was 6.22. The “Brain/Plasma Conc Ratio” value ([3]; male, CD1, mouse, 24 h) was 16.4, the AUClast ([3]; mouse) was 10293 ng·h/g and the AUCInf ([4]; IV 1 mg/kg, male CD1 mice) was 156 ng·h/mL. For the same molecule, the AUClast ([4]; IV 1 mg/kg, male CD1 mice) was 142 ng·h/mL, the AUClast/D ([4]; IV 1 mg/kg, male CD1 mice) was 142 ng·h/mL and the “AUC—% Extrap—obs” value ([4]; IV 1 mg/kg, male CD1 mice) was 8.98%. For the same molecule, the C0 ([4]; IV 1 mg/kg, male CD1 mice) was 119 ng/mL, the Cl_obs ([4]; IV 1 mg/kg, male CD1 mice) was 107 mL/min/kg and the “MRTInf—obs” value ([4]; IV 1 mg/kg, male CD1 mice) was 2.66 h. It also gave a T1/2 ([4]; IV 1 mg/kg, male CD1 mice) of 2.73 h, an AUCInf ([4]; PO 10 mg/kg, male CD1 mice) of 222 ng·h/mL and an AUClast ([4]; PO 10 mg/kg, male CD1 mice) of 202 ng·h/mL. The AUClast/D ([4]; PO 10 mg/kg, male CD1 mice) was 20.2 ng·h/mL, the “AUC—% Extrap—obs” value ([4]; PO 10 mg/kg, male CD1 mice) was 8.81% and the Cmax ([4]; PO 10 mg/kg, male CD1 mice) was 16.2 ng/mL. For the same molecule, the “F (fraction of the dose absorbed)” value ([4]; PO 10 mg/kg, male CD1 mice) was 14.2%, the “MRTInf—obs” value ([4]; PO 10 mg/kg, male CD1 mice) was 9.43 h and the T1/2 ([4]; PO 10 mg/kg, male CD1 mice) was 6.91 h. For the same molecule, the Tmax ([4]; PO 10 mg/kg, male CD1 mice) was 0.25 h, the Vd [4, 5] was 17 L/kg and the half-life [4, 5] was 2.73 h. It also gave a half-life ([4]; male, CD1, mouse, plasma, po, 10 mg/kg) of 6.91 h.
